# The other results are listed elsewhere or left out.
# Experiments:
# Assay in all cases: glycan array binding signal (z-score within array); higher = stronger binding
# Settings in all cases: glycan notation: IUPAC condensed, linker removed
# Gal(a1-3)Gal(b1-3)GlcNAc = biological target: Gal(a1-3)Gal(b1-3)GlcNAc
# How it was run: (§1)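 From the Consortium for Functional Glycomics database, 3228 arrays were curated, keeping only those whose protein sequence was available. Binding is given as a within-array Z-score averaged across arrays sharing a protein sequence and across linkers. Negative Z-scores can be read as non-binding.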
# [1] = biological target: Gal(a1-3)Gal(b1-3)GlcNAc(b1-2)Man
# How it was run: as §1
# [2] = biological target: Gal(a1-3)Gal(b1-3)GlcNAc(b1-2)Man(a1-3)[Gal(a1-3)Gal(b1-3)GlcNAc(b1-2)Man(a1-6)]Man(b1-4)GlcNAc(b1-4)GlcNAc
# How it was run: as §1
# [3] = biological target: Gal(a1-3)Gal(b1-3)GlcNAc(b1-3)GalNAc
# How it was run: as §1
# [4] = biological target: Gal(a1-3)Gal(b1-3)GlcNAc(b1-6)GalNAc
# How it was run: as §1
# [5] = biological target: Gal(a1-3)Gal(b1-3)[Fuc(a1-4)]GlcNAc(b1-2)Man(a1-3)[Gal(a1-3)Gal(b1-3)[Fuc(a1-4)]GlcNAc(b1-2)Man(a1-6)]Man(b1-4)GlcNAc(b1-4)GlcNAc
# How it was run: as §1
# Gal(a1-3)Gal(b1-4)Glc = biological target: Gal(a1-3)Gal(b1-4)Glc
# How it was run: as §1
# Gal(a1-3)Gal(b1-4)GlcNAc = biological target: Gal(a1-3)Gal(b1-4)GlcNAc
# How it was run: as §1
# [6] = biological target: Gal(a1-3)Gal(b1-4)GlcNAc(b1-2)Man
# How it was run: as §1
# [7] = biological target: Gal(a1-3)Gal(b1-4)GlcNAc(b1-2)Man(a1-3)[Gal(a1-3)Gal(b1-4)GlcNAc(b1-2)Man(a1-6)]Man(b1-4)GlcNAc(b1-4)GlcNAc
# How it was run: as §1
# [8] = biological target: Gal(a1-3)Gal(b1-4)GlcNAc(b1-3)GalNAc
# How it was run: as §1
# [9] = biological target: Gal(a1-3)Gal(b1-4)GlcNAc(b1-6)GalNAc
# How it was run: as §1
# [10] = biological target: Gal(a1-3)Gal(b1-4)[Fuc(a1-3)]GlcNAc
# How it was run: as §1
# [11] = biological target: Gal(a1-3)Gal(b1-4)[Fuc(a1-3)]GlcNAc(b1-2)Man(a1-3)[Gal(a1-3)Gal(b1-4)[Fuc(a1-3)]GlcNAc(b1-2)Man(a1-6)]Man(b1-4)GlcNAc(b1-4)GlcNAc
# How it was run: as §1
# Gal(a1-3)GalNAc = biological target: Gal(a1-3)GalNAc
# How it was run: as §1
# [12] = biological target: Gal(a1-3)[Gal(a1-4)]Gal(b1-4)GlcNAc
# How it was run: as §1
# [13] = biological target: Gal(a1-4)Gal(b1-3)GlcNAc(b1-2)Man(a1-3)[Gal(a1-4)Gal(b1-3)GlcNAc(b1-2)Man(a1-6)]Man(b1-4)GlcNAc(b1-4)GlcNAc
# How it was run: as §1
# Gal(a1-4)Gal(b1-4)Glc = biological target: Gal(a1-4)Gal(b1-4)Glc
# How it was run: as §1
# Gal(a1-4)Gal(b1-4)GlcNAc = biological target: Gal(a1-4)Gal(b1-4)GlcNAc
# How it was run: as §1
# [14] = biological target: Gal(a1-4)Gal(b1-4)GlcNAc(b1-2)Man(a1-3)[Gal(a1-4)Gal(b1-4)GlcNAc(b1-2)Man(a1-6)]Man(b1-4)GlcNAc(b1-4)GlcNAc
# How it was run: as §1
# [15] = biological target: Gal(a1-4)Gal(b1-4)GlcNAc(b1-3)Gal(b1-4)Glc
# How it was run: as §1
# Gal(a1-4)GlcNAc = biological target: Gal(a1-4)GlcNAc
# How it was run: as §1
# Gal(a1-6)Glc = biological target: Gal(a1-6)Glc
# How it was run: as §1
# Gal(b1-2)Gal = biological target: Gal(b1-2)Gal
# How it was run: as §1
# Gal(b1-3)Gal = biological target: Gal(b1-3)Gal
# How it was run: as §1
# Gal(b1-3)Gal(b1-4)GlcNAc = biological target: Gal(b1-3)Gal(b1-4)GlcNAc
# How it was run: as §1
# Gal(b1-3)GalNAc = biological target: Gal(b1-3)GalNAc
# How it was run: as §1
# [16] = biological target: Gal(b1-3)GalNAc(a1-3)[Fuc(a1-2)]Gal(b1-4)Glc
# How it was run: as §1
# [17] = biological target: Gal(b1-3)GalNAc(a1-3)[Fuc(a1-2)]Gal(b1-4)GlcNAc
# How it was run: as §1
# Gal(b1-3)GalNAc(b1-3)Gal = biological target: Gal(b1-3)GalNAc(b1-3)Gal
# How it was run: as §1
# [18] = biological target: Gal(b1-3)GalNAc(b1-3)Gal(a1-4)Gal(b1-4)Glc
# How it was run: as §1
# [19] = biological target: Gal(b1-3)GalNAc(b1-4)Gal(b1-4)Glc
# How it was run: as §1
# [20] = biological target: Gal(b1-3)GalNAc(b1-4)[Neu5Ac(a2-3)]Gal(b1-4)Glc
# How it was run: as §1
# Gal(b1-3)GlcNAc = biological target: Gal(b1-3)GlcNAc
# How it was run: as §1
# [21] = biological target: Gal(b1-3)GlcNAc(a1-3)Gal(b1-4)GlcNAc
# How it was run: as §1
# [22] = biological target: Gal(b1-3)GlcNAc(a1-6)Gal(b1-4)GlcNAc
# How it was run: as §1
# Gal(b1-3)GlcNAc(b1-2)Man = biological target: Gal(b1-3)GlcNAc(b1-2)Man
# How it was run: as §1
# [23] = biological target: Gal(b1-3)GlcNAc(b1-2)Man(a1-3)[Gal(b1-3)GlcNAc(b1-2)Man(a1-6)]Man(b1-4)GlcNAc(b1-4)GlcNAc
# How it was run: as §1
binder,measurement,setting,value
SP16663B-bot-321-25-321 (Bacteroides ovatus) (protein) DDDDEVTMNSKFYLSTKVFPVDSYEASLSVILKDNSVVVNELQPNYRFVACATERLSKDVKITADSDDNLVSAYNKANDTEYNILPAENYSFTNKTVTIENGESVSGDSIKIELLNVGSLTTEGGYLLPVTISSIEGNNLDALSSNRGVVYLKIQNIHVNVESGQPAEGTLIADRSGWTVKVAPTTRGDAKNLIDGTNSDVARDGGAEYWLTVDIGKVQTLTGIRNKCYASSYSPTAVEVFTSSDGAKWKSIGAVTISKSGTQYIKFSKAVETRYLKYYVKQGPNTVSLTEFDLYAK,glycan array binding signal (z-score),Gal(a1-3)Gal(b1-3)GlcNAc,0.607
same,glycan array binding signal (z-score),[1],-0.269
same,glycan array binding signal (z-score),[2],-0.494
same,glycan array binding signal (z-score),[3],-0.377
same,glycan array binding signal (z-score),[4],0.655
same,glycan array binding signal (z-score),[5],0.425
same,glycan array binding signal (z-score),Gal(a1-3)Gal(b1-4)Glc,-0.34
same,glycan array binding signal (z-score),Gal(a1-3)Gal(b1-4)GlcNAc,-0.218
same,glycan array binding signal (z-score),[6],-0.738
same,glycan array binding signal (z-score),[7],0.266
same,glycan array binding signal (z-score),[8],-0.585
same,glycan array binding signal (z-score),[9],-0.774
same,glycan array binding signal (z-score),[10],-0.313
same,glycan array binding signal (z-score),[11],-0.421
same,glycan array binding signal (z-score),Gal(a1-3)GalNAc,0.192
same,glycan array binding signal (z-score),[12],0.574
same,glycan array binding signal (z-score),[13],-0.127
same,glycan array binding signal (z-score),Gal(a1-4)Gal(b1-4)Glc,-0.548
same,glycan array binding signal (z-score),Gal(a1-4)Gal(b1-4)GlcNAc,0.642
same,glycan array binding signal (z-score),[14],0.119
same,glycan array binding signal (z-score),[15],-0.359
same,glycan array binding signal (z-score),Gal(a1-4)GlcNAc,-0.546
same,glycan array binding signal (z-score),Gal(a1-6)Glc,-0.741
same,glycan array binding signal (z-score),Gal(b1-2)Gal,-0.275
same,glycan array binding signal (z-score),Gal(b1-3)Gal,-0.483
same,glycan array binding signal (z-score),Gal(b1-3)Gal(b1-4)GlcNAc,0.44
same,glycan array binding signal (z-score),Gal(b1-3)GalNAc,-0.122
same,glycan array binding signal (z-score),[16],-0.267
same,glycan array binding signal (z-score),[17],0.09
same,glycan array binding signal (z-score),Gal(b1-3)GalNAc(b1-3)Gal,-0.151
same,glycan array binding signal (z-score),[18],-0.128
same,glycan array binding signal (z-score),[19],0.67
same,glycan array binding signal (z-score),[20],0.087
same,glycan array binding signal (z-score),Gal(b1-3)GlcNAc,0.263
same,glycan array binding signal (z-score),[21],0.257
same,glycan array binding signal (z-score),[22],-0.359
same,glycan array binding signal (z-score),Gal(b1-3)GlcNAc(b1-2)Man,0.542
same,glycan array binding signal (z-score),[23],0.001

# — the supplement of paper PMC8728848
